In the supplement of paper PMC8047034:
Counter-ions that a name gives are not always drawn. This is one part of the list. Repeats are few or missing, and single values can be far off.

The molecules below were run on Ov4Carbo (assay: log2 surviving fraction (library drug vs vehicle, or drug + carboplatin vs carboplatin alone; relative to plate median); ovarian cancer lines: OVCAR4 is platinum-sensitive and Ov4Carbo platinum-resistant; higher = more cell survival). Settings: library drug concentration 10 µM; 7 days; carboplatin co-treatment 5 µM.

Q: How did the log2 surviving fraction turn out when `CCCC(=O)OCOC(=O)C1=C(C)NC(C)=C(C(=O)OC)C1c1cccc(Cl)c1Cl` (centres undefined) [Cleviprex (Clevidipine)] was run?
A: Its log2 surviving fraction is 0.886.

Q: Which log2 surviving fraction does the source give for `C=CCOc1ccccc1OCC(O)CNC(C)C` (centres undefined) [Oxprenolol HCl] here?
A: The log2 surviving fraction was -0.351.

Q: With `Cc1ccc(C(=O)c2cc(O)c(O)c([N+](=O)[O-])c2)cc1` [Tolcapone] as the molecule, how does the log2 surviving fraction read?
A: The log2 surviving fraction was 1.25.

Q: For `C[C@H]1COc2c(N3CCN(C)CC3)c(F)cc3c(=O)c(C(=O)O)cn1c23` [Levofloxacin (Levaquin)], which log2 surviving fraction is on record?
A: The log2 surviving fraction was -0.0877.

Q: How did the log2 surviving fraction turn out when `Cc1cccc([C@H](C)c2c[nH]cn2)c1C` [Dexmedetomidine HCl (Precedex)] was run?
A: The log2 surviving fraction was -0.161.

Q: With `CN1CCC(=C2c3ccccc3CCc3cccnc32)CC1` [Azatadine dimaleate] as the molecule, how does the log2 surviving fraction read?
A: The log2 surviving fraction was -0.913.

Q: For `CC(C)C(=O)Oc1ccc(CO)cc1[C@H](CCN(C(C)C)C(C)C)c1ccccc1` [Fesoterodine fumarate (Toviaz)], which log2 surviving fraction is on record?
A: Its log2 surviving fraction is -0.232.

Q: Which log2 surviving fraction does the source give for `O=P(O)(O)C(Cl)(Cl)P(=O)(O)O` [Clodronate Disodium] here?
A: The log2 surviving fraction was 1.1.

Q: For `CC[C@H]1OC(=O)[C@H](C)[C@@H](O[C@H]2C[C@@](C)(OC)[C@@H](O)[C@H](C)O2)[C@H](C)[C@@H](O[C@@H]2O[C@H](C)C[C@H](N(C)C)[C@H]2O)[C@](C)(O)C[C@@H](C)CN(C)[C@H](C)[C@@H](O)[C@]1(C)O` [Azithromycin Dihydrate], which log2 surviving fraction is on record?
A: Its log2 surviving fraction is -0.0735.

Q: With `CNC(=O)Oc1ccc2c(c1)[C@]1(C)CCN(C)[C@@H]1N2C` [Physostigmine Hemisulfate Salt] as the molecule, how does the log2 surviving fraction read?
A: Its log2 surviving fraction is -0.033.

Q: For `CCOC(=O)CC(=O)N1CCSC1COc1ccccc1OC` (centres undefined) [Moguisteine], which log2 surviving fraction is on record?
A: The log2 surviving fraction was 0.745.

Q: With `O=C(Nc1ccc([N+](=O)[O-])cc1Cl)c1cc(Cl)ccc1O` [Niclosamide (Niclocide)] as the molecule, how does the log2 surviving fraction read?
A: The log2 surviving fraction was -7.24.

Q: How did the log2 surviving fraction turn out when `CCCC1O[C@@H]2C[C@H]3[C@@H]4CCC5=CC(=O)C=C[C@]5(C)[C@H]4[C@@H](O)C[C@]3(C)[C@]2(C(=O)CO)O1` (some centres undefined) [Budesonide] was run?
A: Its log2 surviving fraction is 0.131.

Q: With `COC(=O)[C@H]1[C@H]2C[C@@H]3c4[nH]c5cc(OC)ccc5c4CCN3C[C@H]2C[C@@H](OC(=O)c2cc(OC)c(OC)c(OC)c2)[C@@H]1OC` [Reserpine] as the molecule, how does the log2 surviving fraction read?
A: The log2 surviving fraction was -4.03.

Q: `CC(C(=O)O)c1ccc(C(=O)c2cccs2)cc1` (centres undefined) [Suprofen (Profenal)] was tested. Which log2 surviving fraction did it give?
A: Its log2 surviving fraction is -0.0835.

Q: With `Cc1ccc(C(=O)Nc2ccc(CN3CCN(C)CC3)c(C(F)(F)F)c2)cc1C#Cc1cnc2cccnn12` as the molecule, how does the log2 surviving fraction read?
A: Its log2 surviving fraction is -7.48.

Q: For `CCCCOc1ccc(C(=O)CCN2CCCCC2)cc1` [Dyclonine HCl], which log2 surviving fraction is on record?
A: The log2 surviving fraction was 0.173.

Q: `CN(C)CCCN1c2ccccc2CCc2ccccc21` [Imipramine HCl] was tested. Which log2 surviving fraction did it give?
A: Its log2 surviving fraction is -0.848.

Q: For `Nc1nc(N)nc(-c2cc(Cl)ccc2Cl)n1` [Irsogladine], which log2 surviving fraction is on record?
A: The log2 surviving fraction was 0.73.

Q: Which log2 surviving fraction does the source give for `CN1C(C(=O)Nc2ccccn2)=C(O)c2ccccc2S1(=O)=O` [Piroxicam (Feldene)] here?
A: The log2 surviving fraction was -0.0159.

Q: Which log2 surviving fraction does the source give for `Cc1cc(-n2c(=O)[nH]c(=O)n(C)c2=O)ccc1Oc1ccc(SC(F)(F)F)cc1` [toltrazuril] here?
A: Its log2 surviving fraction is 1.48.

Q: With `Cc1cc2c(cc1S(N)(=O)=O)S(=O)(=O)CCC2` [Meticrane] as the molecule, how does the log2 surviving fraction read?
A: Its log2 surviving fraction is -0.667.

Q: `CC(=O)Nc1ncc([N+](=O)[O-])s1` [Nithiamide] was tested. Which log2 surviving fraction did it give?
A: The log2 surviving fraction was 0.834.

Q: For `[O-][n+]1cccc(CO)c1` [Mepiroxol], which log2 surviving fraction is on record?
A: Its log2 surviving fraction is 0.252.

Q: How did the log2 surviving fraction turn out when `O=P1(N(CCCl)CCCl)NCCCO1` (centres undefined) [Cyclophosphamide monohydrate] was run?
A: Its log2 surviving fraction is 0.748.

Q: With `c1ccc2[nH]c(-c3cscn3)nc2c1` [Thiabendazole] as the molecule, how does the log2 surviving fraction read?
A: The log2 surviving fraction was 0.56.

Q: With `[O-][n+]1ccccc1[S-].[O-][n+]1ccccc1[S-].[Zn+2]` [Pyrithione zinc] as the molecule, how does the log2 surviving fraction read?
A: The log2 surviving fraction was -6.88.

Q: With `C[C@@H](O)[C@H]1C(=O)N2C(C(=O)[O-])=C(SC3Cn4cnc[n+]4C3)[C@H](C)[C@H]12` (some centres undefined) [Biapenem] as the molecule, how does the log2 surviving fraction read?
A: Its log2 surviving fraction is 0.288.

Q: With `COc1cc2nc(N(C)CCCNC(=O)C3CCCO3)nc(N)c2cc1OC` (centres undefined) [Alfuzosin hydrochloride (Uroxatral)] as the molecule, how does the log2 surviving fraction read?
A: The log2 surviving fraction was -0.308.

Q: For `C=CCc1cc(OC)c(O)c(C(=O)NCCO)c1` [Alibendol], which log2 surviving fraction is on record?
A: Its log2 surviving fraction is 0.825.

Q: `CCOC(=O)c1c(C)n(C)c2ccc(O)cc12` [Mecarbinate] was tested. Which log2 surviving fraction did it give?
A: Its log2 surviving fraction is 1.35.

Q: With `CN1[C@@H]2CC[C@H]1C[C@@H](OC(c1ccccc1)c1ccccc1)C2` [Benztropine mesylate] as the molecule, how does the log2 surviving fraction read?
A: The log2 surviving fraction was -1.62.

Q: With `CC(C)C[C@H](NC(=O)[C@@H](O)[C@H](N)Cc1ccccc1)C(=O)O` [Ubenimex (Bestatin)] as the molecule, how does the log2 surviving fraction read?
A: The log2 surviving fraction was -0.051.

Q: With `CC(C)(C)c1ccc(C(O)CCCN2CCC(C(O)(c3ccccc3)c3ccccc3)CC2)cc1` (centres undefined) [Terfenadine] as the molecule, how does the log2 surviving fraction read?
A: The log2 surviving fraction was -2.88.
